Experimental data published in the supplement of paper PMC10126150.
Values marked as one replicate rest on one cluster of the flow cell; about a third of the high ones do not repeat.

Tested on: ATP
Assay: switch fluorescence ratio, 500 uM ATP over buffer (Cy3 cluster intensity, sum of 5 cycles each) (fold (ratio)); higher = stronger signal-on switching upon ATP binding; sequences stand for … in TCGTCGGCAGCGTCAGATGTGTATAAGAGACAGTTTTTTTTTTTTTTTTTTTTTTTTT…TC
Conditions: aptamer strand: ATP DNA aptamer (quencher-CACCTGGGGGAGTATTGCGGAGGAAGG + anchor), 100 nM annealed; ATP concentration: 500 uM; one replicate
How it was run: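 Imaging in selection buffer was followed by imaging after 15 min with 500 uM ATP at 22 °C, for Cy3-labelled switching-strand clusters annealed to 100 nM quencher-labelled ATP aptamer on a modified Illumina MiSeq flow-cell. Five of these buffer/ATP cycles ran, separated by NaOH stripping and re-annealing. The fluorescence ratio per cluster is summed target-cycle over summed buffer-cycle Cy3 intensity, averaged per switch-domain sequence; clusters outside 100-1000 RFU were removed.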
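Also: ATP exposure 15 min at 22 °C before imaging.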

Row | Sequence | switch fluorescence ratio
1 | TCTTTTAGAG | 0.989
2 | CCCTGGGTGT | 3.91
3 | CTAGGCG | 1
4 | TCGACAGGGA | 1.06
5 | TGATGTGATC | 1.05
6 | GGAACGCCGA | 1.05
7 | TGGTTGTCAC | 1
8 | GAGAATTAC | 1.01
9 | AAAAAAAGAG | 1.02
10 | TACGATCATG | 1.01
11 | TCTAATCGGT | 0.96
12 | TGTGCGCCTT | 0.949
13 | TTCCAGCAAG | 1.76
14 | CCGTCAGTGT | 1.19
15 | GCGAAAATTA | 1
16 | CAGTTTGAAT | 1
17 | GGGTGTTCAC | 1
18 | GCGGAACTGA | 0.998
19 | AAGAATAGG | 0.931
20 | GAGGTAAAAG | 0.989
21 | TAACATTATT | 0.983
22 | GTCGCTGTCG | 0.992
23 | CTTTTTGGTT | 0.986
24 | GCAAGATATT | 1
25 | TATCTAGAGC | 1.02
26 | AGTTGCTGGT | 1.03

Row | Sequence | switch fluorescence ratio
27 | TTTGCGTAAA | 0.962
28 | GAGCTGTGT | 0.997
29 | GGGTGACCAG | 0.986
30 | CCTTGTGTGT | 1.06
31 | TCCATAACAA | 1.17
32 | GGGCAAGGG | 1.06
33 | TGCCATGAGT | 0.971
34 | TGGGACATG | 1.05
35 | GTTAGGGTT | 1.01
36 | TACGGGGTTG | 1.04
37 | CTCGTGTGAT | 0.994
38 | TAGTGCCCGC | 0.981
39 | ATATACTCTC | 1.05
40 | ACAGTAATCC | 1.15
41 | TAAGTGATAC | 2.8
42 | CCTGGATTGG | 0.968
43 | CAGTCGCTGC | 1.08
44 | AAGCTCTACA | 1.02
45 | TACGCGGCC | 1.26
46 | AAAAAGCGGG | 0.948
47 | GCGTCAGGAG | 1.04
48 | AGGGTTGCAA | 1.01
49 | GTAATTGTTG | 0.956
50 | GGAGTGCCTA | 0.998
51 | GCGGCTAGAG | 0.985
52 | CGCGTGTGT | 1.05

Row | Sequence | switch fluorescence ratio
53 | GGCATACCAC | 1.09
54 | GTTCTTGGTT | 0.978
55 | ATCGTCGTG | 0.983
56 | TAATTTACC | 1.07
57 | AGGCTTACTG | 1.01
58 | GTGATCTG | 1.02
59 | AGGCACGTGA | 0.979
60 | CAAGCGGTGG | 1.08
61 | ATCTAAAGCA | 0.985
62 | TTCGGAGGGG | 1.22
63 | ACGTTAAGCT | 1.18
64 | CTTTGGCTGT | 0.951
65 | TATGGTATGG | 1
66 | TACTGGCTCA | 1.04
67 | TATAGCAATA | 5.34
68 | GCTTTAAGGA | 1.01
69 | TTACACTACT | 1.29
70 | AGTAAGAAGA | 1.02
71 | AAACATGAAG | 0.993
72 | CCACGTATCA | 1.02
73 | TTAGGACTTC | 1.01
74 | TTTTCTCCTA | 0.928
75 | ATCGTTCATG | 1.01
76 | ATTGGGTTC | 1.03
77 | ACTACGGC | 1.22
78 | CTGCAATTT | 2.56

Row | Sequence | switch fluorescence ratio
79 | ATATGTCGTC | 0.948
80 | GCGCACAGTA | 1.01
81 | ATGCAGTTGT | 1.01
82 | CTCCTCGAAA | 1.85
83 | CATGACTAAT | 1.01
84 | AGTCTGGGTC | 1.01
85 | AAGGTGTTCT | 1.01
86 | CCCTTATAAT | 1.09
87 | CGAAGGCATC | 1.86
88 | CGCGGATATA | 1.06
89 | GAATACATAA | 1.01
90 | TGGCGTCGGC | 1
91 | TTCTACGTTT | 1.08
92 | GCTACTTAGA | 1.07
93 | GGGCCGCGAC | 1.31
94 | TCAAGGACGT | 1.06
95 | AGACGACCCA | 1.44
96 | TTTCCGATTG | 1.06
97 | GCGGGGTCTT | 1.03
98 | ACATTCATAG | 1.01
99 | TGCAAACTTG | 1.03
100 | CGGTTAAGA | 0.997
101 | CGAATTTCAT | 0.978
102 | GGTATTCGA | 0.997
103 | GCGGTCATTA | 0.965
104 | TTTTAATCCT | 1.1

Row | Sequence | switch fluorescence ratio
105 | CCACGGTGGG | 1.03
106 | AGCAAACACT | 1.04
107 | ACGTATAAAC | 1.19
108 | TATTTCAGAT | 0.992
109 | CCACTAAAT | 1.11
110 | TGATTGGGGC | 0.979
111 | ACTTCCGCAT | 2.98
112 | GAGACGAGG | 0.981
113 | AGTCTGGTGG | 1.19
114 | TTAAAGCAAG | 1.02
115 | GGATTCGTTG | 0.99
116 | TCCATCTAAG | 0.999
117 | GTACTTGGAC | 1.02
118 | ACAGTGCTTG | 1.03
119 | CATCGGGTA | 1.01
120 | ATTGACAG | 1.02
121 | CGGTAGATTC | 1.02
122 | CTCGGGTGTC | 1.03
123 | GGGTATAAGC | 1.02
124 | CTGAGTCTGG | 1.02
125 | AGCAGAACCG | 1.05
126 | CCGCTCTTTG | 1.07
127 | GTACTCGACA | 1.14
128 | GGCAGGAGGC | 1
129 | GCTGGACCAC | 1.05
130 | ACTTTAAACG | 1.05

Row | Sequence | switch fluorescence ratio
131 | TCCAGGCAAA | 1.26
132 | GGACTATTCA | 1.01
133 | CAATGCCGTG | 0.946
134 | TCGGGGAGGT | 0.953
135 | AACGTGGGAA | 1.01
136 | CTTTTAATAA | 1.02
137 | CCTAGGATCG | 1.02
138 | TTTGTCAGAA | 0.994
139 | ACGCTGCGTG | 0.999
140 | CGACCACTCA | 1.3
141 | CGCGGTGTTG | 1.02
142 | GGATAGGCCC | 1
143 | CCTGGTCGAA | 0.971
144 | GCCCTCGCCG | 1.06
145 | CCTAGTTATA | 1.06
146 | GTTCTAGCGT | 0.95
147 | TCCCTTTCGT | 0.996
148 | TACATGTTTC | 1
149 | ATTACATGGC | 0.952
150 | AAATTAGTCA | 1
151 | TTTAGGCCCT | 1.01
152 | TTCTCAGCAT | 2.24
153 | ACCCAAGAGT | 1.03
154 | TTGTAGAAGC | 0.987
